The record followed here is the GPR68 mutational scans of Howard et al. (2025).

Scores whose standard error is large were omitted. The source holds two more conditions with little spread; they are left out. Names with del lack the residues named; names with ins carry added residues between the positions named. For part of these data: The data file names ogerin without a concentration.

Sequences and labels used below:
B1: GPR68, Q15743 (parent)
chain: MGNITADNSSMSCTIDHTIHQTLAPVVYVTVLVVGFPANCLSLYFGYLQIKARNELGVYLCNLTVADLFYICSLPFWLQYVLQHDNWSHGDLSCQVCGILLYENIYISVGFLCCISVDRYLAVAHPFRFHQFRTLKAAVGVSVVIWAKELLTSIYFLMHEEVIEDENQHRVCFEHYPIQAWQRAINYYRFLVGFLFPICLLLASYQGILRAVRRSHGTQKSRKDQIQRLVLSTVVIFLACFLPYHVLLLVRSVWEASCDFAKGVFNAYHFSLLLTSFNCVADPVLYCFVSETTHRDLARLRGACLAFLTCSRTGRAREAYPLGAPEASGKSGAQGEEPELLTKLHPAFQTPNSPGSGGFPTGRLA

Variants of B1 are the subject of data set [1]. As to the kind of experiment: cAMP reporter score (Enrich2 score, wild type = 0); higher = more signal; HEK293T, FACS bins.
Variants of B1 are the subject of data set [2]. The data set is described as follows: surface expression score (Enrich2 score, wild type = 0); higher = more signal; HEK293T, FACS bins.

As to MGNITADNSSMSCTIDHTIHQTLAPVVYVTVLVVGFPANCLSLYFGYLQIKARNELGVYLCNLTVADLFYICSLPFWLQYVLQHDNWSHGDLSCQVCGILLYENIYISVGFLCCISVDRYLAVAHPFRFHQFRTLKAAVGVSVVIWAKELLTSIYFLMHEEVIEDENQHRVCFEHYPIQAWQRAINYYRFLVGFLFPICLLLASYQGILRAVRRSHGTQKSRKDQIQRLVLSTVVIFLACFLPYHVLLLVRSVWEASCDFAKGVFNAYHFSLLLTSFNCVADPVLYCFVSETTHRDLARLRGACLAFLTCSRTGRARETYPLGAPEASGKSGAQGEEPELLTKLHPAFQTPNSPGSGGFPTGRLA [A319T], the cAMP reporter score in data set [1] (pH 5.5) was 0.493; in data set [1] (pH 6) it was -1.05; in data set [1] (pH 6, modulator: ogerin), 0.278; in data set [1] (pH 6.5, modulator: ogerin) it was 0.183. In addition, the surface expression score in data set [2] was 0.472.

As to MGNITADNSSMSCTIDHTIHQTLAPVVYVTVLVVGFPANCLSLYFGYLQIKARNELGVYLCNLTVADLFYICSLPFWLQYVLQHDNWSHGDLSCQVCGILLYENIYISVGFLCCISVDRYLAVAHPFRFHQFRTLKAAVGVSVVIWAKELLTSIYFLMHEEVIEDENQHRVCFEHYPIQAWQRAINYYRFLVGFLFPICLLLASYQGILRAVRRSHGTQKSRKDQIQRLVLSTVVIFLACFLPYHVLLLVRSVWEASCDFAKGVFNAYHFSLLLTSFNCVADPVLYCFVSETTHRDLARLRGACLAFLTCSRTGRAREVYPLGAPEASGKSGAQGEEPELLTKLHPAFQTPNSPGSGGFPTGRLA [A319V], the cAMP reporter score was 0.487 in data set [1] (pH 5.5); -0.348 in data set [1] (pH 6); 0.581 in data set [1] (pH 6, modulator: ogerin). The surface expression score in data set [2] worked out at 0.891.
